Laboratory results as given in PubChem BioAssay AID624296 (National Center for Advancing Translational Sciences (NCATS), 2012).
Among all 350,000 compounds or so, about 9,900 (2.8%) were called active. The inconclusive results got no clear call from the source; some entries with a clear call stand among them for comparison. The call rests on the fitted dose curve; in most records, active means well fitted activation curve with a large enough effect; inconclusive means small, poorly fitted or top-dose-only effect; inactive means no such curve, though single readings can be large or run the other way. No potency is given beside an inconclusive call; the fits are too rough.
Potency means the concentration at half of the fitted maximal effect; tags describe the fitted curve by direction and shape.

Assay: A quantitative high throughput screen for small molecules that induce DNA re-replication in MCF 10a normal breast cells. Further: nearly all actives have a fitted effect of over 50% in size.
Conditions: MCF 10A DNA re-replication, Hoechst nuclear intensity, 48 h; series mostly up to 46.1 µM
In the case of `Cc1cc(Nc2ccccc2Cl)nc(-c2ccccc2O)n1`, the Potency is reported as inconclusive [activator, single point].
For `O=c1[nH]c2ccc(S(=O)(=O)N3CCCCC3)cc2o1`, the Potency was inconclusive [activator, partial curve, poor fit].
In the case of `Cc1nc2ccccc2c(=O)n1/N=C/c1cn(-c2ccccc2)nc1-c1cccs1`, the Potency is reported as inconclusive [activator, partial curve].
In the case of `CC(=O)Nc1ccc(NC(=O)c2ccc(Cn3cc(Cl)cn3)cc2)cc1`, the Potency is reported as “inactive”.
In the case of `O=C(/C=C/c1ccc(Cl)cc1)N1CCN(c2ccc(Cl)cc2[N+](=O)[O-])CC1`, the Potency is reported as inconclusive [activator, partial curve, poor fit].
With `O=C(c1ccc(NS(=O)(=O)c2ccccc2)cc1)N1CCCCCC1` the Potency was “inactive”.
In the case of `CC(=O)c1cc(-c2ccccc2)n(CC(=O)Nc2cccc(C)c2C)c1C`, the Potency is reported as “inactive”.
With `CC1(C)OC(=O)N(c2ccccc2)C12C=Cc1c(ccc3ccccc13)O2` (centres undefined) the Potency was inconclusive [activator, partial curve].
For `CN(C)CCNC(=O)c1sc2nc(-c3ccccc3)cc(C(F)(F)F)c2c1N`, the Potency was inconclusive [activator, partial curve].
With `Cn1cccc1C(=O)C(=O)Nc1cc(Cl)cc(Cl)c1` the Potency was inconclusive [activator, single point].
For `O=C(NCC1CCCN(Cc2cccc(C(F)(F)F)c2)C1)c1ccc(F)cc1` (centres undefined), the Potency was “inactive”.
With `CCc1ccc(NC(=O)CN2CCC(C(=O)c3ccc(OC)cc3)CC2)cc1` the Potency was inconclusive [activator, single point].
In the case of `CCN(C(=O)COc1cc(=O)n(CC)c2ccccc12)c1cc(Cl)ccc1OC`, the Potency is reported as “inactive”.
For `CCOC(=O)N1CCN(CC(O)COC2CC(C)CCC2C(C)C)CC1` (centres undefined), the Potency was inconclusive [activator, single point].
With `O=C(NC1CCCCC1)N1CCCC(c2nc(-c3cccs3)no2)C1` (centres undefined) the Potency was inconclusive [activator, partial curve, poor fit].
In the case of `C=CCSc1nc2ccccc2n1C(=O)/C=C/c1cc(OC)c(OC)c(OC)c1`, the Potency is reported as active: 3.26 µM.
In the case of `Cc1ccc(C2=CC(=O)C[C@H](c3ccc(F)cc3)C2)cc1`, the Potency is reported as inconclusive [activator, partial curve, poor fit].
With `O=C1CC(c2ccccc2)Oc2ccc(Cl)cc21` (centres undefined) the Potency was inconclusive [activator, single point].
With `COCc1c(C(=O)N(C)Cc2ccccc2N2CCCC2)oc2ccccc12` the Potency was inconclusive [activator, partial curve, poor fit].
